From the supplement of paper PMC12217912 come the findings set out here.

The list shows a part of the results. Sequences were assembled here from the parent chain. Values near 0.05 are background.

B1: TEV protease; numbered along this chain (parent)
chain: MGESLFKGPRDYNPISSSICHLTNESDGHTTSLYGIGFGPFIITNKHLFRRNNGTLVVQSLHGVFKVKDTTTLQQHLVDGRDMIIIRMPKDFPPFPQKLKFREPQREERICLVTTNFQTKSMSSMVSDTSCTFPSGDGIFWKHWIQTKDGQCGSPLVSTRDGFIVGIHSASNFTNTNNYFTSVPKNFMELLTNQEAQQWVSGWRLNADSVLWGGHKVFMVKPEEPFQPVKEATQL
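Also: Bxb1 expression induced with 0.2% (w/v) L-rhamnose at OD600 near 0.5, cultures sampled hourly, flipped fraction per protease–substrate barcode pair counted by paired-end Illumina sequencing.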

Variants of B1 are the subject of the experiment. The experiment is described as follows: raw area under fraction-flipped curve 0-4 h after induction (AUC4h, not background-subtracted), DNA-recorder readout of cleavage of the substrate (dimensionless); higher = more cleavage of the substrate by the protease variant. The conditions noted are these: temperature: 34 °C; time window: 0-4 h after rhamnose induction.
For the variant MGESLFKGPRDYNPISSSICHLTNESDGHTTSLYGIGFGPFIITNKHLFRRNNGTLVVQSLGGVFKVKDTTTLQQHLVDGRDMIIIRMPKDFPPFPQKLKFREPQREERICLVTTNFQTKSMSSMVSDTSCTFPSGDGIFWKHWIQTKDGQCGSPLVSTRDGFIVGIHSASNFTNTNNYFTSVPKNFMELLTNQEAQQWVSGWRLNADSVLWGGHKVFMVKPEEPFQPVKEATQL [H62G], the “area with substrate HNLYFQS” value amounted to 0.0843, the “area with substrate LNLYFQS” value turned out to be 0.0776, the “area with substrate MNLYFQS” value was determined as 0.0642 and the “area with substrate PNLYFQS” value was 0.0755. Besides, the “area with substrate SNLYFQS” value was found to be 0.0582, the “area with substrate TNLYFQS” value turned out to be 0.0593, the “area with substrate WNLYFQS” value was 0.0604 and the “area with substrate YNLYFQS” value came out at 0.0469.

Consider MGESLFKGPRDYNPISSSICHLTNESDGHTTSLYGIGFGPFIITNKHLFRRNNGTLVVQSLTGVFKVKDTTTLQQHLVDGRDMIIIRMPKDFPPFPQKLKFREPQREERICLVTTNFQTKSMSSMVSDTSCTFPSGDGIFWKHWIQTKDGQCGSPLVSTRDGFIVGIHSASNFTNTNNYFTSVPKNFMELLTNQEAQQWVSGWRLNADSVLWGGHKVFMVKPEEPFQPVKEATQL [H62T], for which the “area with substrate HNLYFQS” value turned out to be 0.0613, the “area with substrate INLYFQS” value came out at 0.0651, the “area with substrate LNLYFQS” value worked out at 0.0765 and the “area with substrate PNLYFQS” value worked out at 0.0575. For the same variant, the “area with substrate RNLYFQS” value turned out to be 0.0702, the “area with substrate SNLYFQS” value was found to be 0.0724, the “area with substrate TNLYFQS” value was 0.0489 and the “area with substrate WNLYFQS” value is 0.05.

In the case of MGESLFKGPRDYNPISSDICHLTNESDGHTTSLYGIGFGPFIITNKHLFRRNNGTLVVQSLHGVFKVKDTTTLQQHLVDGRDMIIIRMPKDFPPFPQKLKFREPQREERICLVTTNFQTKSMSSMVSDTSCTFPSGDGIFWKHWIQTKDGQCGSPLVSTRDGFIVGIHSASNFTNTNNYFTSVPKNFMELLTNQEAQQWVSGWRLNADSVLWGGHKVFMVKPEEPFQPVKEATQL [S18D], the “area with substrate HNLYFQS” value is 0.0578, the “area with substrate INLYFQS” value turned out to be 0.0605, the “area with substrate KNLYFQS” value is 0.0577 and the “area with substrate LNLYFQS” value amounted to 0.0564. Moreover, the “area with substrate NNLYFQS” value amounted to 0.0552, the “area with substrate PNLYFQS” value worked out at 0.0561, the “area with substrate SNLYFQS” value was determined as 0.0677 and the “area with substrate VNLYFQS” value turned out to be 0.0553. Moreover, the “area with substrate WNLYFQS” value worked out at 0.0494.

With MGESLFKGPRDYNPISSSICHLTNESDGHTTSTYGIGFGPFIITNKHLFRRNNGTLVVQSLHGVFKVKDTTTLQQHLVDGRDMIIIRMPKDFPPFPQKLKFREPQREERICLVTTNFQTKSMSSMVSDTSCTFPSGDGIFWKHWIQTKDGQCGSPLVSTRDGFIVGIHSASNFTNTNNYFTSVPKNFMELLTNQEAQQWVSGWRLNADSVLWGGHKVFMVKPEEPFQPVKEATQL [L33T], the “area with substrate HNLYFQS” value turned out to be 0.0523, the “area with substrate KNLYFQS” value came to 0.0688, the “area with substrate LNLYFQS” value is 0.0803 and the “area with substrate NNLYFQS” value amounted to 0.0629. In addition, the “area with substrate SNLYFQS” value worked out at 0.06 and the “area with substrate TNLYFQS” value came out at 0.0566.

In the case of MGESLFKGPRDYNPISSSICHLTNESDGHTTSLYGIGFGPFIITNKHLFRRNNGTLVVQSLHGVFKVKDTTTLQQHLVDGRDMKIIRMPKDFPPFPQKLKFREPQREERICLVTTNFQTKSMSSMVSDTSCTFPSGDGIFWKHWIQTKDGQCGSPLVSTRDGFIVGIHSASNFTNTNNYFTSVPKNFMELLTNQEAQQWVSGWRLNADSVLWGGHKVFMVKPEEPFQPVKEATQL [I84K], the “area with substrate HNLYFQS” value came to 0.0508, the “area with substrate INLYFQS” value amounted to 0.0584, the “area with substrate LNLYFQS” value was 0.0414 and the “area with substrate MNLYFQS” value came out at 0.0595. Also, the “area with substrate NNLYFQS” value was 0.0602, the “area with substrate PNLYFQS” value amounted to 0.0625, the “area with substrate SNLYFQS” value amounted to 0.0522 and the “area with substrate TNLYFQS” value came to 0.0576. The “area with substrate WNLYFQS” value amounted to 0.0427.

Consider MGESLFKGPRDYNPISSSICHLTNESDGHTTSLYGIGFGPFIITNKHLFRRNNGTLVVQSLHGVFKVKDCTTLQQHLVDGRDMIIIRMPKDFPPFPQKLKFREPQREERICLVTTNFQTKSMSSMVSDTSCTFPSGDGIFWKHWIQTKDGQCGSPLVSTRDGFIVGIHSASNFTNTNNYFTSVPKNFMELLTNQEAQQWVSGWRLNADSVLWGGHKVFMVKPEEPFQPVKEATQL [T70C], for which the “area with substrate HNLYFQS” value was 0.0579, the “area with substrate INLYFQS” value came to 0.0633, the “area with substrate MNLYFQS” value worked out at 0.0588 and the “area with substrate NNLYFQS” value worked out at 0.0614. Moreover, the “area with substrate QNLYFQS” value worked out at 0.0409, the “area with substrate TNLYFQS” value was 0.0581, the “area with substrate VNLYFQS” value is 0.0535 and the “area with substrate WNLYFQS” value came out at 0.0481. Further, the “area with substrate YNLYFQS” value worked out at 0.053.

Take MGESLFKGPRDYNPISSSICHLTNESDGHTTSLYGIGFGPFIITNKHLFSRNNGTLVVQSLHGVFKVKDTTTLQQHLVDGRDMIIIRMPKDFPPFPQKLKFREPQREERICLVTTNFQTKSMSSMVSDTSCTFPSGDGIFWKHWIQTKDGQCGSPLVSTRDGFIVGIHSASNFTNTNNYFTSVPKNFMELLTNQEAQQWVSGWRLNADSVLWGGHKVFMVKPEEPFQPVKEATQL [R50S]: the “area with substrate HNLYFQS” value worked out at 0.0635, the “area with substrate NNLYFQS” value came out at 0.0621, the “area with substrate PNLYFQS” value was found to be 0.057 and the “area with substrate WNLYFQS” value was found to be 0.0558.

As for MGESLFKGPRDYNPISSSICHLTNESDGHTTSLYGIGFGPFIITNKHLFRRNNGTLVWQSLHGVFKVKDTTTLQQHLVDGRDMIIIRMPKDFPPFPQKLKFREPQREERICLVTTNFQTKSMSSMVSDTSCTFPSGDGIFWKHWIQTKDGQCGSPLVSTRDGFIVGIHSASNFTNTNNYFTSVPKNFMELLTNQEAQQWVSGWRLNADSVLWGGHKVFMVKPEEPFQPVKEATQL [V58W], the “area with substrate HNLYFQS” value was 0.0496, the “area with substrate MNLYFQS” value came out at 0.0345, the “area with substrate TNLYFQS” value came to 0.0206 and the “area with substrate YNLYFQS” value amounted to 0.0487.

As for MGESLFKGPRDYNPISSSICHLTNESDGHTTSLYGIGFGPFIITNKHLFRRNNGTLVVQSLHGVFKEKDTTTLQQHLVDGRDMIIIRMPKDFPPFPQKLKFREPQREERICLVTTNFQTKSMSSMVSDTSCTFPSGDGIFWKHWIQTKDGQCGSPLVSTRDGFIVGIHSASNFTNTNNYFTSVPKNFMELLTNQEAQQWVSGWRLNADSVLWGGHKVFMVKPEEPFQPVKEATQL [V67E], the “area with substrate HNLYFQS” value was 0.045, the “area with substrate PNLYFQS” value stood at 0.0859 and the “area with substrate TNLYFQS” value was 0.0391.

With MGESLFKHPRDYNPISSSICHLTNESDGHTTSLYGIGFGPFIITNKHLFRRNNGTLVVQSLHGVFKVKDTTTLQQHLVDGRDMIIIRMPKDFPPFPQKLKFREPQREERICLVTTNFQTKSMSSMVSDTSCTFPSGDGIFWKHWIQTKDGQCGSPLVSTRDGFIVGIHSASNFTNTNNYFTSVPKNFMELLTNQEAQQWVSGWRLNADSVLWGGHKVFMVKPEEPFQPVKEATQL [G8H], the “area with substrate HNLYFQS” value was found to be 0.0571, the “area with substrate LNLYFQS” value was determined as 0.0801, the “area with substrate NNLYFQS” value was determined as 0.0508 and the “area with substrate PNLYFQS” value is 0.081.

Take MGESLFKGPRDYNPISSSICHLTNESDGHTMSLYGIGFGPFIITNKHLFRRNNGTLVVQSLHGVFKVKDTTTLQQHLVDGRDMIIIRMPKDFPPFPQKLKFREPQREERICLVTTNFQTKSMSSMVSDTSCTFPSGDGIFWKHWIQTKDGQCGSPLVSTRDGFIVGIHSASNFTNTNNYFTSVPKNFMELLTNQEAQQWVSGWRLNADSVLWGGHKVFMVKPEEPFQPVKEATQL [T31M]: the “area with substrate HNLYFQS” value was 0.0689, the “area with substrate INLYFQS” value turned out to be 0.0517, the “area with substrate KNLYFQS” value amounted to 0.0622 and the “area with substrate MNLYFQS” value was 0.0348. In addition, the “area with substrate TNLYFQS” value was 0.0988, the “area with substrate VNLYFQS” value came to 0.077, the “area with substrate WNLYFQS” value stood at 0.0615 and the “area with substrate YNLYFQS” value turned out to be 0.0794.
